# Assay results as given in the supplement of paper PMC8728848.
# This is one part of the list.
# Experiments:
# Assay in all cases: glycan array binding signal (z-score within array); higher = stronger binding
# Conditions in all cases: glycan notation: IUPAC condensed, linker removed
# [1] = biological target: Neu5Ac(a2-8)Neu5Ac
# In short: (§1)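 The Consortium for Functional Glycomics database supplied 3228 glycan arrays, of which those lacking an available protein sequence were dropped. The binding signal, a within-array Z-score, was averaged across arrays of the same protein sequence and across linkers. Negative scores can be read as non-binding.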
# [2] = biological target: Neu5Ac(a2-8)Neu5Ac(a2-3)Gal(b1-3)GalNAc(b1-4)[Neu5Ac(a2-3)]Gal(b1-4)Glc
# In short: as §1
# [3] = biological target: Neu5Ac(a2-8)Neu5Ac(a2-3)Gal(b1-3)GalNAc(b1-4)[Neu5Ac(a2-8)Neu5Ac(a2-3)]Gal(b1-4)Glc
# In short: as §1
# [4] = biological target: Neu5Ac(a2-8)Neu5Ac(a2-3)Gal(b1-4)Glc
# In short: as §1
# [5] = biological target: Neu5Ac(a2-8)Neu5Ac(a2-3)Gal(b1-4)GlcNAc
# In short: as §1
# [6] = biological target: Neu5Ac(a2-8)Neu5Ac(a2-3)[Gal(b1-3)GalNAc(b1-4)]Gal(b1-4)Glc
# In short: as §1
# [7] = biological target: Neu5Ac(a2-8)Neu5Ac(a2-3)[GalNAc(b1-4)]Gal(b1-4)Glc
# In short: as §1
# [8] = biological target: Neu5Ac(a2-8)Neu5Ac(a2-8)Neu5Ac
# In short: as §1
# [9] = biological target: Neu5Ac(a2-8)Neu5Ac(a2-8)Neu5Ac(a2-3)Gal(b1-4)Glc
# In short: as §1
# [10] = biological target: Neu5Ac(a2-8)Neu5Ac(a2-8)Neu5Ac(a2-3)[Gal(b1-3)GalNAc(b1-4)]Gal(b1-4)Glc
# In short: as §1
# [11] = biological target: Neu5Ac(a2-8)Neu5Ac(a2-8)Neu5Ac(a2-3)[GalNAc(b1-4)]Gal(b1-4)Glc
# In short: as §1
# [12] = biological target: Neu5Ac(a2-8)Neu5Ac(a2-8)Neu5Ac(a2-8)Neu5Ac(a2-3)[GalNAc(b1-4)]Gal(b1-4)Glc
# In short: as §1
# [13] = biological target: Neu5Ac(a2-8)Neu5Gc(a2-3)Gal(b1-4)GlcNAc
# In short: as §1
# [14] = biological target: Neu5Ac(b2-6)Gal(b1-4)GlcNAc
# In short: as §1
# [15] = biological target: Neu5Ac(b2-6)GalNAc
# In short: as §1
# [16] = biological target: Neu5Ac9Ac(a2-3)Gal(b1-3)GlcNAc
# In short: as §1
# [17] = biological target: Neu5Ac9Ac(a2-3)Gal(b1-4)GlcNAc
# In short: as §1
# [18] = biological target: Neu5Ac9Ac(a2-6)Gal(b1-4)GlcNAc
# In short: as §1
# [19] = biological target: Neu5Gc(a2-3)Gal(b1-3)GlcNAc
# In short: as §1
# [20] = biological target: Neu5Gc(a2-3)Gal(b1-3)[Fuc(a1-4)]GlcNAc
# In short: as §1
# [21] = biological target: Neu5Gc(a2-3)Gal(b1-4)Glc
# In short: as §1
# [22] = biological target: Neu5Gc(a2-3)Gal(b1-4)GlcNAc
# In short: as §1
# [23] = biological target: Neu5Gc(a2-3)Gal(b1-4)GlcNAc(b1-3)Gal(b1-4)GlcNAc(b1-2)Man(a1-3)[Neu5Gc(a2-3)Gal(b1-4)GlcNAc(b1-3)Gal(b1-4)GlcNAc(b1-2)Man(a1-6)]Man(b1-4)GlcNAc(b1-4)GlcNAc
# In short: as §1
# [24] = biological target: Neu5Gc(a2-3)Gal(b1-4)[Fuc(a1-3)]GlcNAc
# In short: as §1
# [25] = biological target: Neu5Gc(a2-6)Gal(b1-4)GlcNAc
# In short: as §1
# [26] = biological target: Neu5Gc(a2-6)GalNAc
# In short: as §1
# [27] = biological target: Neu5Gc(a2-8)Neu5Ac(a2-3)Gal(b1-4)GlcNAc
# In short: as §1
# [28] = biological target: Neu5Gc(a2-8)Neu5Gc(a2-3)Gal(b1-4)GlcNAc
# In short: as §1
# [29] = biological target: Neu5Gc(a2-8)Neu5Gc(a2-3)Gal(b1-4)GlcNAc(b1-3)Gal(b1-4)GlcNAc
# In short: as §1
# [30] = biological target: Neu5Gc(a2-8)Neu5Gc(a2-6)Gal(b1-4)GlcNAc
# In short: as §1
# [31] = biological target: Neu5Gc(b2-6)Gal(b1-4)GlcNAc
# In short: as §1
binder,measurement,setting,value
PNGase F (Flavobacterium meningosepticum) (protein) GIPAPADNTVNIKTFDKVKNAFGDGLSQSAEGTFTFPADVTAVKTIKMFIKNECPNKTCDEWDRYANVYVKNKTTGEWYEIGRFITPYWVGTEKLPRGLEIDVTDFKSLLSGNTELKIYTETWLAKGREYSVDFDIVYGTPDYKYSAVVPVVQYNKSSIDGVPYGKAHTLALKKNIQLPTNTEKAYLRTTISGWGHAKPYDAGSRGCAEWCFRTHTIAINNSNTFQHQLGALGCSANPINNQSPGNWTPDRAGWCPGMAVPTRIDVLNNSLIGSTFSYEYKFQNWTNNGTNGDAFYAISSFVIAKSNTPISAPVVTNLDPHHHHHH,glycan array binding signal (z-score),[1],-0.021
same,glycan array binding signal (z-score),[2],-0.328
same,glycan array binding signal (z-score),[3],0.226
same,glycan array binding signal (z-score),[4],-0.276
same,glycan array binding signal (z-score),[5],-0.461
same,glycan array binding signal (z-score),[6],-0.261
same,glycan array binding signal (z-score),[7],-0.399
same,glycan array binding signal (z-score),[8],0.84
same,glycan array binding signal (z-score),[9],-0.357
same,glycan array binding signal (z-score),[10],0.196
same,glycan array binding signal (z-score),[11],-0.338
same,glycan array binding signal (z-score),[12],-0.321
same,glycan array binding signal (z-score),[13],-0.287
same,glycan array binding signal (z-score),[14],-0.382
same,glycan array binding signal (z-score),[15],-0.443
same,glycan array binding signal (z-score),[16],-0.301
same,glycan array binding signal (z-score),[17],-0.393
same,glycan array binding signal (z-score),[18],-0.297
same,glycan array binding signal (z-score),[19],-0.088
same,glycan array binding signal (z-score),[20],0.219
same,glycan array binding signal (z-score),[21],0.187
same,glycan array binding signal (z-score),[22],2.36
same,glycan array binding signal (z-score),[23],-0.251
same,glycan array binding signal (z-score),[24],-0.06
same,glycan array binding signal (z-score),[25],-0.046
same,glycan array binding signal (z-score),[26],-0.047
same,glycan array binding signal (z-score),[27],-0.379
same,glycan array binding signal (z-score),[28],-0.326
same,glycan array binding signal (z-score),[29],-0.362
same,glycan array binding signal (z-score),[30],-0.249
same,glycan array binding signal (z-score),[31],-0.065
